# Hit rate of the full screen: of about 360,000 compounds, about 25,000 (6.9%) were called active. Inconclusive means that the source gave no clear call. Such entries were picked first, then a sample of the others. The call rests on the fitted dose curve; in most records, active means well fitted inhibition curve with a large enough effect; inconclusive means small, poorly fitted or top-dose-only effect; inactive means flat fitted curve, though single readings scatter. Where the call is inconclusive, the potency comes from a doubtful curve fit.
# Molecular target: Luciferin 4-monooxygenase (Photinus pyralis) (UniProt P08659)
# UniProt P08659, sequence (P08659 whole entry, looked up): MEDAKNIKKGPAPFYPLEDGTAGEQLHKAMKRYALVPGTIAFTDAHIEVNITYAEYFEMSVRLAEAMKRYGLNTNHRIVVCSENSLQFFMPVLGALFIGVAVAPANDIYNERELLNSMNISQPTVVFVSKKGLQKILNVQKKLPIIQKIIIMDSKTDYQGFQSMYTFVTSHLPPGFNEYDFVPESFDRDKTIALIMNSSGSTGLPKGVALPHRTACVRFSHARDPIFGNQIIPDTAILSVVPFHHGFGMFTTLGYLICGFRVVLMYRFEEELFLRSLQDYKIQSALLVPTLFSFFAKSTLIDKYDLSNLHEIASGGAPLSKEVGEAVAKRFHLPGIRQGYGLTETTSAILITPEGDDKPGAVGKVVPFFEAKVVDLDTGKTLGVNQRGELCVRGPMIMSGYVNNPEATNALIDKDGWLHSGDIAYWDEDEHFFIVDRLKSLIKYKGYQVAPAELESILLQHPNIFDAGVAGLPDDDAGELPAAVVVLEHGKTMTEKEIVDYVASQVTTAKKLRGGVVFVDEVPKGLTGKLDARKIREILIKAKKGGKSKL
# Assay: qHTS profiling assay for firefly luciferase inhibitor/activator using purifed enzyme and Km concentrations of substrates (counterscreen for miR-21 project); further: nearly all actives have a fitted effect of over 55% in size;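 on activity change, negative = inhibition: plate controls were vehicle for no effect and reference inhibitor for full effect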
# Settings: purified FLuc, luminescence inhibition; activity change, negative = inhibition: at 57.5 µM (top of the series)
# How it was run: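 Purified P. pyralis luciferase (10nM final) with 10uM D-luciferin and 10uM ATP (Km levels) in 50mM Tris acetate pH 7.5, 10mM Mg acetate, 0.01% Tween-20, 0.05% BSA; qHTS 6-point titration, ~60 µM downward; luminescence read.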
# Potency means the concentration at half of the fitted maximal effect; tags describe the fitted curve by direction and shape.
Compound,"activity change, negative = inhibition",Potency
CCCc1nnc(NC(=O)CCC(=O)NCc2ccccc2Cl)s1,inactive: -2.27%,–
CC(=O)Nc1ccc(S(=O)(=O)Oc2ccc(/C=C3\SC(N)=NC3=O)cc2)cc1,inactive: -1.85%,–
Cn1c(N)c(C(=O)CSc2ccc3c(c2)OCCO3)c(=O)n(C)c1=O,–,"inconclusive: 19 µM [inhibitor, partial curve]"
O=C1OC(c2ccc(Br)cc2)=N/C1=C\c1ccco1,–,"inconclusive: 23.9 µM [inhibitor, partial curve]"
Nc1nc2sc3c(c2cc1C(=O)NCC(=O)O)CCCC3,–,active: 0.953 µM
Cc1cc(C)c(S(=O)(=O)Nc2ccc(-c3cn4ccccc4n3)cc2)c(C)c1,–,"inconclusive: 19 µM [inhibitor, partial curve, poor fit]"
O=C(O)c1cc(-c2ccco2)nn1-c1cccc(Cl)c1,–,"inconclusive: 23.9 µM [inhibitor, single point]"
C/C=C(\C)CN1CCC(Oc2ccc(C(=O)NCc3ccccn3)cc2)CC1,inactive: -0.631%,–
CC(C)c1ccc(NC(=O)CSc2nc(=O)n(Cc3ccccn3)c3c2CCC3)cc1,–,"inconclusive: 42.6 µM [inhibitor, partial curve, poor fit]"
N#Cc1nc(COc2cccc(Cl)c2)oc1NCCc1ccccc1,inactive: -11.9%,–
COc1ccc2c(c1OC)C(=O)OC2Nc1nc(-c2ccccc2)cs1 (stereo not drawn),inactive: 0.505%,–
CCCN(Cc1nnc(-c2ccccc2Cl)o1)C(=O)c1cc2ccccc2o1,–,"inconclusive: 21.3 µM [inhibitor, single point]"
CCOC(=O)c1ccc(NC(=O)C(Cc2ccccc2)N2Cc3ccccc3C2=O)cc1 (stereo not drawn),inactive: -9.21%,–
COC(=O)c1sccc1NC(=O)Nc1cccc(F)c1,–,active: 12 µM
COc1ccc(C(=O)Nc2nc3n(n2)C(c2ccccc2)C=C(c2ccccc2)N3)cc1 (stereo not drawn),–,"inconclusive: 37.9 µM [inhibitor, partial curve, poor fit]"
CCN(CC)S(=O)(=O)c1cccc(NC(=O)CSc2nc3ccccc3[nH]2)c1,inactive: -3.99%,–
Clc1cccc(Nc2nc(-c3ccncc3)cs2)c1,inactive: -2.56%,–
Cc1[nH]n(-c2ncc(-c3ccc(Cl)cc3)s2)c(=O)c1C(c1ccc(Cl)cc1)C(C#N)C#N (stereo not drawn),–,"inconclusive: 37.9 µM [inhibitor, partial curve, poor fit]"
COc1ccc(-c2cnc3ccccc3n2)cc1NC(=O)CNC(=O)c1ccccc1,–,"inconclusive: 8.49 µM [inhibitor, partial curve, poor fit]"
O=C(Nc1nccs1)c1ccc(-c2ccc(Cl)cc2Cl)o1,–,active: 0.849 µM
O=C(O)Cn1cc(C(=S)N2CCCCC2)c2ccccc21,–,"inconclusive: 26.9 µM [inhibitor, partial curve, poor fit]"
Cc1cc(O)ccc1N/C=C1\CCCC1=O,–,"inconclusive: 26.9 µM [inhibitor, single point]"

Compound,"activity change, negative = inhibition",Potency
Cn1cc([N+](=O)[O-])c(C(=O)N/N=C/c2ccc3c(c2)OCO3)n1,–,"inconclusive: 23.9 µM [inhibitor, partial curve, poor fit]"
Cc1cccc(NC(=O)c2ccccn2)c1C,–,"inconclusive: 21.3 µM [inhibitor, partial curve, poor fit]"
CCC(=O)Nc1ccc(NC(=O)c2ccco2)c(OC)c1,inactive: 1.7% [at 2.3 µM],–
COC(=O)c1ccc(OCC(=O)c2ccc(C)c(C)c2)cc1,–,"inconclusive: 26.9 µM [inhibitor, single point]"
CCOC(=O)COc1ccc2c(=O)cc(-c3ccccc3)oc2c1,–,"inconclusive: 26.9 µM [inhibitor, single point]"
COc1ccc(NC(=O)COc2ccc(C(=O)c3ccc(F)cc3)cc2)cc1S(N)(=O)=O,–,"inconclusive: 26.9 µM [inhibitor, partial curve, poor fit]"
Cc1cccc(N2CCN(C(=O)c3ccc(CS(=O)(=O)c4ccccc4C)o3)CC2C)c1 (stereo not drawn),inactive: -1.73%,–
CN(/C=C/C(=C/C=[N+](C)c1ccccc1)OCCCS(=O)(=O)[O-])c1ccccc1,–,"inconclusive: 21.3 µM [inhibitor, single point]"
COc1ccc(-c2cn3nc(N4CCCC(C(=O)Nc5cccc(OC)c5)C4)sc3n2)cc1 (stereo not drawn),–,"inconclusive: 8.49 µM [inhibitor, partial curve, poor fit]"
CCOC(=O)c1cc(C#N)c(SCC(=O)O)[nH]c1=O,–,"inconclusive: 16.9 µM [inhibitor, partial curve, poor fit]"
CCOC(=O)C(=O)Nc1nc(-c2ccc3c(c2)CCN3C(=O)C2CC2)c(C)s1,–,"inconclusive: 23.9 µM [inhibitor, single point]"
CCCCc1ccc(NC(=O)CSc2nc(=O)n(CCN3CCOCC3)c3c2CCC3)cc1,–,"inconclusive: 23.9 µM [inhibitor, partial curve, poor fit]"
CN(C)c1ccc(NC(=O)Cc2ccccc2)c2ccccc12,–,"inconclusive: 37.9 µM [inhibitor, partial curve, poor fit]"
Cc1nc(SCc2ccccc2F)c2cnn(-c3ccccc3)c2n1,–,"inconclusive: 13.5 µM [inhibitor, partial curve, poor fit]"
CC(NC(=O)Nc1ccc2c(c1)OCO2)c1ccncc1 (stereo not drawn),–,"inconclusive: 21.3 µM [inhibitor, partial curve, poor fit]"
CN(C)C(=O)c1cc(C(=O)Cc2ccccc2)c[nH]1,inactive: 3.23%,–
CN(C(=O)c1ccc(Cl)c(S(=O)(=O)N2CCOCC2)c1)c1ccccc1C(=O)O,–,"inconclusive: 19 µM [inhibitor, partial curve, poor fit]"
CCC1=NN2C(=N)/C(=C\c3ccc(SCc4ccco4)o3)C(=O)N=C2S1,–,"inconclusive: 37.9 µM [inhibitor, single point]"
O=C(N/N=C/c1cccnc1)c1ccccc1OCc1ccc(Br)cc1,–,"inconclusive: 26.9 µM [inhibitor, partial curve, poor fit]"
CCOc1ccc(/C=N/Nc2nc(C)cs2)c(O)c1,–,active: 3.79 µM
CCOc1ncccc1C(=O)OCC(=O)c1c[nH]c2ccccc12,–,"inconclusive: 21.3 µM [inhibitor, single point]"

# Reference: PubChem BioAssay AID588342 (National Center for Advancing Translational Sciences (NCATS), 2011)
